Hit rate of the full screen: of about 340,000 compounds, fewer than 10 were called active. The shares of active, inactive and inconclusive entries below differ from those in the screen. The call rests on the fitted dose curve; in most records, active means well fitted inhibition curve with a large enough effect in the main read-out, with a control signal flat (not every such curve was filed as active); inconclusive means small, poorly fitted or top-dose-only effect, or effect the other way, or a change in a side signal; inactive means no such curve, though single readings can be large or run the other way. A potency beside an inconclusive call is a rough fit, not a confirmed value. “Side channel” marks fits to a control or component signal instead of the main read-out.
Biological target: Tumor susceptibility gene 101 protein (Homo sapiens) (UniProt Q99816)
Assay: qHTS Assay for Iinhibitors of HIV-1 Budding by Blocking the Interaction of PTAP/TSG101; on activity change, negative = inhibition: % of control where 0% means no effect
Settings: Fluorescence polarization, FITC-PTAP peptide / Tsg101 binding; activity change, negative = inhibition: at 115 µM (top of the series)
Summary of the method: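 FP read-out: FITC-PTAP peptide, 50 nM final, binding Tsg101 binding domain, 10 uM final; 20 min, r.t.; 10 mM HEPES pH 7.5, 0.15 M NaCl, 0.01% Tween 20, 3 mM EDTA, 0.1 mM TCEP.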
Potency means the concentration at half of the fitted maximal effect; tags describe the fitted curve by direction and shape or compound fluorescence and quenching.

Sequence of UniProt Q99816 (Q99816 whole entry, looked up): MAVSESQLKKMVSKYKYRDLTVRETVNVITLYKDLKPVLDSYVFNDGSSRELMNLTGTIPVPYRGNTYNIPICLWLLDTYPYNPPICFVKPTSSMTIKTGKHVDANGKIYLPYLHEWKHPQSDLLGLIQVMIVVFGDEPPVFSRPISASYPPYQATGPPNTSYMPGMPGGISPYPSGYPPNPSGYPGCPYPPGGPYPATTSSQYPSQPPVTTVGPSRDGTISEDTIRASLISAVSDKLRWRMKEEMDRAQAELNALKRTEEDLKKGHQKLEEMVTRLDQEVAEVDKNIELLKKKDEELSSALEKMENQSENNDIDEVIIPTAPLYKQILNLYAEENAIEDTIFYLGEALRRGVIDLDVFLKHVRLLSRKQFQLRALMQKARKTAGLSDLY

| SMILES | activity change, negative = inhibition | Potency |
| --- | --- | --- |
| Cn1c(=O)n(C)c2cc([N+](=O)[O-])c(N3CCN(S(=O)(=O)c4ccc(C(C)(C)C)cc4)CC3)cc21 | inactive: 3.48% |  |
| O=C1N/C(=C/c2ccc(N3CCOCC3)o2)C(=O)N1c1cccc(Cl)c1 |  | inconclusive: 50.1 µM [fluorescent, side channel, partial curve, poor fit] |
| O=C(NC1CCCC1)C(c1cccs1)N(C(=O)c1ccco1)c1ccc2c(c1)OCO2 (stereo not drawn) |  | inconclusive: 89.1 µM [quencher, side channel, single point] |
| N#Cc1c(SCC(=O)Nc2nc3ccc(Br)cc3s2)sc2c(O)cc(=O)[nH]c12 |  | inconclusive: 50.1 µM [falling, partial curve, poor fit] |
| COc1ccc2noc3c2c1C(=O)c1ccccc1-3 |  | inconclusive: 10 µM [fluorescent, side channel, full curve] |
| COc1ccc(OCCOc2ccc(N(C)S(=O)(=O)c3ccccc3)cc2)cc1 | inactive: -3.78% |  |
| Cc1ccc(S(=O)(=O)c2c(N)n(CCCN(C)C)c3nc4ccccc4nc23)cc1 | inactive: -5.09% |  |
| Cc1ccc(S(=O)(=O)C(C#N)c2nc3ccccc3nc2N2CCN(C)CC2)cc1C (stereo not drawn) | inconclusive: 30.7% [activator] |  |
| CC(C)(C)OC(=O)COc1cc(OCC(=O)OC(C)(C)C)c2c(=O)cc(-c3ccccc3)oc2c1 |  | inconclusive: 20 µM [quencher, side channel, partial curve, poor fit] |
| Cc1nc(-c2ccc(F)cc2)c(CC(=O)Nc2ccc(C)c(S(=O)(=O)N3CCOCC3)c2)s1 | inactive: 0% |  |
| COc1ccc(/C=C/C(=O)c2c(O)cc(C)oc2=O)c(OC)c1 |  | inconclusive: 89.1 µM [fluorescent, side channel, partial curve] |
| Cc1cc(C)n(CC(C)Nc2nc3nonc3nc2N2CCCCC2)n1 (stereo not drawn) | inactive: 0.267% |  |
| COc1cc(/C=C2\SC(c3ccc(C)cc3)=NC2=O)cc(OC)c1OC |  | inconclusive: 50.1 µM [fluorescent, side channel, partial curve, poor fit] |
| CCOC(=O)c1c(NC(=O)CC2Nc3ccccc3NC2=O)sc(C)c1C (stereo not drawn) |  | inconclusive: 22.4 µM [fluorescent, side channel, full curve] |
| O=S(=O)([N-]c1nc2ccccc2nc1-[n+]1ccc(CCCc2ccccc2)cc1)c1cccs1 |  | inconclusive: 89.1 µM [fluorescent, side channel, single point] |
| CC(C)(C)OC(=O)NCCCC[C@H](NC(=O)c1nc[nH]c1C(=O)NC(c1ccccc1)c1ccccc1)C(=O)OC(C)(C)C |  | inconclusive: 31.6 µM [quencher, side channel, partial curve, poor fit] |
| C/C(=N/NS(=O)(=O)c1cccc([N+](=O)[O-])c1)c1ccncc1 | inactive: -4.22% |  |
| Cc1cc(C)c(S(=O)(=O)Nc2nnc(CC(C)C)s2)c(C)c1 | inactive: -9.37% |  |
| Cc1ccc(/C=C/c2ccc(N(C)C)cc2)[n+](C)c1 |  | inconclusive: 56.2 µM [fluorescent, partial curve, poor fit] |

| SMILES | activity change, negative = inhibition | Potency |
| --- | --- | --- |
| CCOC(=O)Cn1c(=O)c(-c2cc(Br)ccc2N)nc2ccccc21 |  | inconclusive: 50.1 µM [fluorescent, side channel, partial curve, poor fit] |
| CN1CCN(C(=O)Nc2cccc(-c3ccccc3)c2)CC1 | inactive: -6.34% |  |
| CCOCCCNc1nc2c(C)cccn2c(=O)c1/C=C1\SC(=S)N(CC(C)C)C1=O |  | inconclusive: 2.82 µM [fluorescent, side channel, full curve, poor fit] |
| CC(C)CCN1C(=O)c2cccc3c(N)ccc(c23)C1=O |  | inconclusive: 44.7 µM [fluorescent, side channel, partial curve, poor fit] |
| CCN(CC)c1ccc(/C=C2\SC(N)=NC2=O)cc1 |  | inconclusive: 56.2 µM [fluorescent, side channel, partial curve, poor fit] |
| CNCCCOc1ccc(Cl)cc1C(C)(C)C | inactive: 1.58% |  |
| CSc1nc2ccc3nc(NC(=O)c4ccc(Cl)s4)sc3c2s1 | inactive: 0.728% |  |
| O=C(N=c1ccn(-c2nc3ccccc3nc2NS(=O)(=O)c2ccc(Cl)cc2)cc1)c1cccs1 |  | inconclusive: 79.4 µM [fluorescent, side channel, partial curve, poor fit] |
| Nc1c(C(=O)c2cccs2)sc2nsc(SCCN3CCCCC3)c12 |  | inconclusive: 56.2 µM [fluorescent, side channel, partial curve, poor fit] |
| CC(C)C[C@H](NC(=O)c1nc[nH]c1C(=O)NCCCCCNC(=O)OC(C)(C)C)C(=O)OC(C)(C)C |  | inconclusive: 39.8 µM [quencher, side channel, partial curve, poor fit] |
| CCN(CC)c1ccc(/C=C/c2cc(-c3ccccc3)c3ccccc3n2)cc1 |  | inconclusive: 79.4 µM [fluorescent, side channel, partial curve, poor fit] |
| CSC1=NSC2=NC(=O)/C(=C\c3coc4ccccc4c3=O)C(=N)N12 |  | active: 35.5 µM |
| Cc1c2ccccc2nc2c(F)c(NC(C)C)c(F)c(F)c12 |  | inconclusive: 31.6 µM [fluorescent, side channel, full curve] |
| CCCNC(=O)C(Cc1ccccc1F)NC(=O)c1ccc(C#N)cc1 (stereo not drawn) | inactive: -6.98% |  |
| CCCSc1nc2sc3c(c2c(=O)[nH]1)CCN(Cc1ccccc1)C3 |  | inconclusive: 79.4 µM [fluorescent, side channel, partial curve, poor fit] |
| Cc1c(N=Cc2c(O)n(C)c(=O)c3ccccc23)c(=O)n(-c2ccccc2)n1C |  | inconclusive: 79.4 µM [fluorescent, side channel, partial curve] |
| COc1ccc(NS(=O)(=O)c2cc([N+](=O)[O-])ccc2NN=Cc2ccccc2OCC(=O)O)cc1 | inactive: -0.294% |  |
| Cc1ccc(NC(=O)[C@@H](C)NC(=O)[C@@H]2Cc3ccccc3CN2)cc1 | inactive: -6.58% |  |
| COc1cccc(NC(=O)CSc2nnc3cc(C)nc(N)n23)c1 | inactive: 0.26% |  |

Source: PubChem BioAssay AID493005 (National Center for Advancing Translational Sciences (NCATS), 2010)
